# Experimental data from PubChem BioAssay AID488969 (Vanderbilt High Throughput Screening Facility, 2010).
# Whole data set: some 110,000 compounds, median “z-score” near -0.1, cut for the highest 2% near 2. Some of the results follow. Calls of active or inactive are those of the source.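 How the source made its calls: active means z-score in the third read window above 3 or below -3; inactive means the rest.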
# Target: Metabotropic glutamate receptor 8 (Rattus norvegicus) (UniProt P70579)
# Test: rat mGluR8 modulators via GIRK flux, primary screen, cell-based, thallium flux, HTS (AID 488969)
# Conditions: HEK293 rat mGluR8, GIRK (G protein-gated inwardly rectifying potassium channel) thallium flux, FluoZin2; at 10 µM; stronger effect = higher value; submaximal glutamate (EC20) added with thallium
# Sequence of UniProt P70579 (P70579 whole entry, looked up): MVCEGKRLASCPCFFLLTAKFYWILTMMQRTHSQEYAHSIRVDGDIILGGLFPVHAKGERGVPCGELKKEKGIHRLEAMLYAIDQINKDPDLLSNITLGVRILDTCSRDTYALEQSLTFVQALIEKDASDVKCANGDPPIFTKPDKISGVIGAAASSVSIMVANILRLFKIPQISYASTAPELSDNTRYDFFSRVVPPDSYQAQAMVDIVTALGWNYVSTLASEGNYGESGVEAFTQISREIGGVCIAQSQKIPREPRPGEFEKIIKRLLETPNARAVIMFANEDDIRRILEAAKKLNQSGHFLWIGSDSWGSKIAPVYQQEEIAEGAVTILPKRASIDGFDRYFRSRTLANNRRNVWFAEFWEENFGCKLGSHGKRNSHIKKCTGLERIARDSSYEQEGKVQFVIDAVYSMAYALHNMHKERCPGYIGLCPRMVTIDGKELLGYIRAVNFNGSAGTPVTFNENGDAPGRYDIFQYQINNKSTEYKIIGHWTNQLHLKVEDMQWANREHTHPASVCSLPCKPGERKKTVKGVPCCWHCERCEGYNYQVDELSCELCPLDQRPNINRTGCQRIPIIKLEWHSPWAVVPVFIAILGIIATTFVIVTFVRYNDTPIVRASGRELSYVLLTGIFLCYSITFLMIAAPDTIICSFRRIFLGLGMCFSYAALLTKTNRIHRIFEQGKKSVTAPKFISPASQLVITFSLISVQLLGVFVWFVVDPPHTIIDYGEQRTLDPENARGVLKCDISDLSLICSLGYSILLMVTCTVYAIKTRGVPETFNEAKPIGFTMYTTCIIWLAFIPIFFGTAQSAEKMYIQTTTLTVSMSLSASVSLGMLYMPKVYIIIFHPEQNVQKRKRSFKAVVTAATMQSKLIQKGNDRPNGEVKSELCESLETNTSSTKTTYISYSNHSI
row,SMILES,z-score
1,C=CCSc1nc2sc(-c3ccccc3)cc2c(=O)n1N,0.177
2,NC(=O)CSc1nnc(-c2ccc(S(=O)(=O)N3CCOCC3)cc2)n1CC1CCCO1 (centres undefined),0.058
3,COC(=O)C1CCN(C(=O)c2cc3ccccc3oc2=O)CC1,-0.0907
4,CCCN1CCC(=NNC(=O)c2ccc(Br)o2)CC1,0.0167
5,CCSc1nnc(NC(=O)CN(C)S(=O)(=O)c2ccc(F)cc2)s1,-0.521
6,CCCCCCCCCOC(=O)C[n+]1csc(CCO)c1C,0.0302
7,c1ccc2c(c1)CCCN2c1nc2ccccc2n2cnnc12,-0.203
8,Cc1ccc(-c2cc(C(=O)N(C)Cc3cnn(C)c3C)c3cc(Br)ccc3n2)cc1,-0.388
9,Cc1ccc2cccc(NC(=S)NC(=O)c3c(Br)cnn3C)c2n1,0.727
10,Clc1ccc(-c2ccc(/C=N/Nc3cc(N4CCOCC4)nc(N4CCOCC4)n3)o2)cc1,-0.432
11,N#CC1=C(N)SC(N)=C(C#N)C1CCc1ccccc1,active: -3.05
12,COc1cc(C(=O)Nc2sc3c(c2C(=O)NCc2ccco2)CCCC3)cc(OC)c1OC,0.0376
13,CSc1nc2ccccc2cc1/C=C(\C#N)c1ccccc1,0.0152
14,CCCC(=O)N1CCN(c2ccc([N+](=O)[O-])cc2Cl)CC1,0.00135
15,COc1ccc(Cl)cc1S(=O)(=O)Oc1ccc(NC(C)=O)cc1,-0.267
16,Cc1cc2cc(CN(Cc3ccco3)S(=O)(=O)c3c(C)ccc4nsnc34)c(=O)[nH]c2cc1C,-0.0899
17,CS(=O)(=O)c1ccc(N)cc1,0.0786
18,O=C(CSc1nc2ccccc2[nH]1)N1CCN(S(=O)(=O)c2ccc(Cl)cc2)CC1,-0.563
19,COc1cccc(Cn2cnc3c(NS(=O)(=O)c4ccc(Cl)cc4)c(C)c(C)cc32)c1,0.166
20,COc1cnc(-c2ccccn2)nc1Oc1ccc(Cl)cc1,-0.376
21,COc1ccc(S(=O)(=O)Cc2ccc(C(=O)N3CCN(c4ccccc4F)CC3)o2)cc1,-0.0707
22,O=C1CN(C(=O)COc2ncnc3ccccc23)c2ccccc2N1,-0.237

row,SMILES,z-score
1,CCCCn1c(CCNC(=O)c2cccs2)nc2ccccc21,0.225
2,Nc1nonc1C(=O)NCCNCc1cc(Br)ccc1OCc1ccccc1F,active: 4.61
3,O=S1(=O)CCC(N=Cc2cc(Br)ccc2O)C1 (centres undefined),-0.293
4,CCOC(=O)N1CCC(N2Cc3cccc(C(=O)Nc4cc(F)ccc4F)c3C2=O)CC1,-0.36
5,COc1cccc2cc(C(=O)NC(C)C3CCCO3)c(=O)oc12 (centres undefined),0.105
6,COc1ccc(NC(=O)CSc2nnc(Cc3cccn3C)n2-c2ccc(F)cc2)cc1OC,-0.626
7,CCN(CC(=O)NC1CCS(=O)(=O)C1)S(=O)(=O)c1ccc(F)cc1 (centres undefined),0.393
8,N#C/C(=C\c1ccc[nH]1)C(=O)NC1CC1,-0.315
9,O=C(OCc1ccc(F)cc1Cl)c1ccccn1,-0.402
10,NNc1nc(N)c2c(n1)-c1ccccc1CC21CCCC1,-0.24
11,COCCn1c(SCCCC(=O)c2ccc(Br)cc2)nnc1-c1ccncc1,-0.169
12,CCn1c(COc2ccccc2C)nnc1SCC(=O)N1CCN(c2ccccc2)CC1,-0.308
13,CCOC(=O)N1CCN(C(=O)c2ccc3c(=O)n(Cc4ccc(Cl)cc4)c(=S)[nH]c3c2)CC1,0.798
14,O=C(O)c1ccc(C(=O)O)c(C(=O)c2ccccc2)c1,0.0505
15,O=C(Cn1ncc2c1-c1ccccc1OC2)Nc1nc2ccccc2s1,0.996
16,O=C(c1cnccn1)N(Cc1ccco1)C1(C(=O)NC2CCCC2)CCCCC1,-0.0484
17,O=C1N=C2SCCN2/C1=C\c1c(Cl)cccc1Cl,-0.354
18,CC(=O)C1=C(C)NC(=O)NC1c1ccccc1OCC(=O)NCCc1ccccc1 (centres undefined),-0.246
19,O=C(/C=C/c1ccccc1)NC(=S)Nc1cccnc1,-0.00695
20,COc1cccc(-n2nnc3c(=O)n(CC(=O)NCC4CCCO4)cnc32)c1 (centres undefined),-0.23
21,Cc1nc2c(C(=O)NCc3ccc4c(c3)OCO4)c[nH]n2c(=O)c1Cc1ccccc1F,-0.36
22,O=C(Oc1nsnc1N1CCOCC1)N(c1ccccc1)c1ccccc1,-1.85

row,SMILES,z-score
1,COc1ccc(NC(=O)CN2CCc3ccccc3C2)cc1S(=O)(=O)N1CCOCC1,-0.285
2,Cc1cccc2cc(CN(CCN3CCOCC3)C(=O)Nc3ccccc3F)c(=O)[nH]c12,-0.15
3,CN(C1CCS(=O)(=O)C1)S(=O)(=O)c1cccc2nsnc12 (centres undefined),-0.32
4,CCOP(=O)(OCC)C(NCc1ccccc1)c1ccc(Br)cc1 (centres undefined),-0.107
5,CN(C)CCNC=C(C(=O)Nc1ccc(Cl)cc1Cl)C(=O)Nc1ccc(Cl)cc1Cl,-0.172
6,CN(C)c1ccc(C=C(c2nnnn2-c2ccccc2)c2nnnn2-c2ccccc2)cc1,-0.722
7,CCOC(=O)c1cc2c(ccn2C)n1Cc1cc(C)ccc1C,0.246
8,CNc1oc(Cc2cccc3ccccc23)nc1C#N,-0.318
9,Cc1cccc(Oc2ccccc2NC(=O)c2cnccn2)c1,-0.109
10,COc1ccc2nc(NC3=NC(C(=O)Nc4ccc(C)cc4)CC(=O)N3)nc(C)c2c1 (centres undefined),-0.114
11,Cc1nnc(SCC(=O)Nc2sccc2C#N)n1Cc1ccccc1,1.4
12,CCn1cc(C(=O)O)c(=O)c2cc(F)c(N3CCN(S(=O)(=O)c4ccc(NC(=O)OC)cc4)CC3)cc21,-0.347
13,O=C(NCCN1C(=O)CSC1=O)C1CC(=O)N(c2ccccc2)C1 (centres undefined),-0.251
14,CCSc1nnc(NC(=O)[C@@H](NC(=O)c2ccccc2)C(C)C)s1,-0.168
15,CC(=O)Nc1ccc(S(=O)(=O)NCCSc2ccccn2)cc1,0.153
16,Cc1cc(S(=O)(=O)NCc2ccccc2)ccc1OCC(=O)Nc1cccc([N+](=O)[O-])c1,-0.12
17,O=C(c1coc2ccccc2c1=O)N1CCN(c2cccc(C(F)(F)F)c2)CC1,-0.686
18,CC(=O)[C@@H]1[C@@H]2C(=O)N(Cc3ccccc3)C(=O)[C@@H]2C2c3ccccc3C=CN21 (some centres undefined),-0.583
19,CCOc1ccc(C(CCc2ccccc2)NC(=O)c2ccccc2F)cc1OCC (centres undefined),-0.49
20,Cc1cc(CSc2ccccc2)ccc1NC(=O)c1ccc(Cl)c([N+](=O)[O-])c1,-0.354
21,CC(=O)n1nc2nc(C)cc(C)c2c1N,0.0296
22,N#Cc1c(N)nc(SCC(=O)NC2CCCCC2)c(C#N)c1-c1ccc(Cl)cc1,0.526

row,SMILES,z-score
1,CC1CC(C)CN(CCOc2ccc(Cl)cc2Cl)C1 (centres undefined),-0.4
2,Cc1ccc(Nc2nc(-c3sc(NC(=O)c4cccc(Cl)c4)nc3C)cs2)cc1,0.086
3,O=C(CS(=O)(=O)c1ccccc1)c1ccc2c(c1)OCCO2,-1.45
4,Cc1cc2ncn(CC(O)COc3cccc(C(=O)O)c3)c2cc1C (centres undefined),-0.664
5,CCCCCCCCS(=O)c1sc2nc(C)cc(C)c2c1N (centres undefined),0.417
6,CCOC(=O)c1c(N)sc(C(=O)N(C)C)c1CN1CCOCC1,-0.409
7,N#Cc1c(-c2ccc(Cl)cc2)ccn2nc(C3CCCCC3)nc12,-0.0469
8,c1cncc(-c2nnc(SCc3cccc4ccccc34)o2)c1,-0.08
9,COc1cccc(-c2nnc3n2N=C(c2cc(OC)ccc2OC)CS3)c1,-0.616
10,CC1=NCCN1S(=O)(=O)c1ccc(Br)c(C)c1,0.159
11,COc1ccc(C2C(C(=O)N3CCCCC3)c3ccccc3C(=O)N2C)cc1 (centres undefined),-0.315
12,CC(c1ccc(F)cc1)n1c(-c2ccc3ccccc3n2)n[nH]c1=S (centres undefined),active: 6.84
13,O=C1CCCCCCC1Sc1ccccc1[N+](=O)[O-] (centres undefined),-0.12
14,O=C(C1=C(Nc2ccccc2)c2ccccc2S(=O)(=O)N1)c1ccccc1,-0.115
15,CCN(CC)Cc1c(O)ccc2c(=O)c(Oc3ccccc3OC)coc12,-0.345
16,Cc1ccc(-n2nnnc2Sc2nc([N+](=O)[O-])nn2C)c(C)c1,-0.203
17,CCOC(=O)c1ccc(-n2c(N)c(C(=O)NCc3ccco3)sc2=S)cc1,-1.24
18,CC(/C=N/NC(=O)C(O)c1ccccc1)=C\c1ccccc1 (centres undefined),-0.196
19,Cc1cccc(C)c1OCC(O)CNC(C)C (centres undefined),-0.0305
20,Cc1ccccc1S(=O)(=O)NNC(=O)C(=O)NNc1ccccn1,0.00757
21,CN1CCN(CCCc2c3c(cc4c2CCC4)CCC3)CC1,0.356
22,CCCCSCCCNC(=O)Nc1cccc(OC)c1,-0.211

row,SMILES,z-score
1,CCCCN(C)S(=O)(=O)c1c(C)[nH]c(=O)[nH]c1=O,-0.321
2,COc1ccc2oc(=O)c(-c3nc4ccccc4o3)cc2c1,-0.0792
3,O=C(N/N=C/c1cccc([N+](=O)[O-])c1)c1ccc2nc[nH]c2c1,-0.363
4,CN1CCN(C(=O)c2cc3c(ccc4ccccc43)oc2=O)CC1,-0.235
5,Cc1ccc(CSc2ncccc2C(=O)O)cc1,-0.255
6,CCCc1nc2sc3c(c2c(=O)n1N)CCC3,-0.358
7,O=C(/C=C/c1ccc(-c2ccccc2[N+](=O)[O-])o1)c1ccc(F)cc1,0.317
8,O=C(CCn1c(=O)[nH]c2ccsc2c1=O)N1CCN(Cc2ccc3c(c2)OCO3)CC1,-0.248
9,CCCCOc1cccc(-c2nnc(N)s2)c1,-0.361
10,CCC(C)NC(=O)Nc1ccccc1C (centres undefined),0.0118
11,O=C(NC(=S)NC1CCSC1=O)c1cccs1 (centres undefined),0.494
12,Cc1sc2nc(CSCC(=O)Nc3c(Cl)cccc3Cl)[nH]c(=O)c2c1C,-0.156
13,O=C(COC(=O)C1(c2ccc(F)cc2)CCCC1)N1CCOCC1,-0.0802
14,CC(=O)c1cccc(NC(=O)c2ccc(-c3ccccc3[N+](=O)[O-])o2)c1,-0.15
15,CCCCN(C(=O)CSc1nnc(-c2ccc(OC)cc2)n1CC)c1c(N)n(Cc2ccccc2)c(=O)[nH]c1=O,0.217
16,O=C1CCCN1CN(C(=O)c1ccc2c(c1)OCO2)c1ccc(F)cc1,-0.0977
17,Cn1cc(SCC(=O)Nc2nc3ccccc3s2)c2ccccc21,0.0839
18,O=C(COC(=O)c1ccc(S(=O)(=O)N2CCCC2)cc1)NCc1ccc(Cl)cc1,-0.409
19,Cc1ccccc1-c1nc(CS(=O)(=O)CC(=O)NCCCN2CCCC2)c(C)o1,1.69
20,CSc1nc2ccccc2n1CC(=O)N1CCCCC1,0.207
21,COCCn1c(=NC(=O)c2cc(-c3cccs3)nc3ccccc23)sc2cc(S(N)(=O)=O)ccc21,-0.122
